Target: Acetylcholinesterase (electric eel EC 3.1.1.7); AChE (Electrophorus electricus, UniProt O42275)
Assay: biochemical

Compound | IC50
CC(=O)O[C@H]1C[C@@](C)(O)[C@@H]2CC=C(C)[C@@H]2[C@H]2OC(=O)[C@@H](C)[C@@H]21 [compound 3, Amberbin A] | 8.6 ± 0.15 µM
CC(=O)O[C@H]1C[C@@](C)(OC(CO)CO)[C@@H]2CC=C(C)[C@@H]2[C@H]2OC(=O)[C@@H](C)[C@@H]21 [compound 1, 8α-Acetoxy-10α-(1,3-dihydroxy-2-propyl)-1 α H, 5α H, 6β H, 7α H, 11 β H, 11α-methylguaia-3-enolide] | 1.1 ± 0.08 µM
